# Measured values published in the supplement of paper PMC8728848.
# This is one part of the list.
# B1: Pbx1 (Cryptococcus neoformans) (protein)
# chain: ATTKCLVSGDQDSINNALALGGEGTTVTLCPGSVHRLNSSIIFTAPSQTLTTLGNPKDRNRAMLVVDGEDLACAIRADCKQCSHAMIRSLVIDGNRPQLLRIPKGDALIEVGNAESQTVRDCKLYEPRGWSALHFREGDERQCRFGHIVDNEIGPCGEEWDDEYDSMDETKPLWGNPRADGISLACKDSIVERNVVYDATDGAIVLFGSAGSTVKNNHVYARTRVILGGINLVDYEPWDGDYTNVKVHHNHLYALGRYFKVGIVIGPASWSDDTESVVHSASVTDNEFSGGYWGYGIVVASAKNFEVLRNKVIWDGEQGVARFSGVPGSRCPKAPENGKPTAFLINRGSAKGIFQDDFVNGEVQHIICLNPDQDPPYKPWRFRDSPEAIAAKQAENPTANSAFDSRIAEALVSYQMSLLNSMDAMTQKVEHLTNPIVDDALPFVHEHERAEADKKARQEASRKEKESGNKDVDMLNVKVEELEKSGRRLKKALDGLKSDFEGLSGRLKKSADENKPIIETIFVTSQNLLLGATSQQN
# Tests used:
# Assay in all cases: glycan array binding signal (z-score within array); higher = stronger binding
# Conditions in all cases: glycan notation: IUPAC condensed, linker removed
# [1] = biological target: Gal(b1-4)GlcNAc(b1-2)[Gal(b1-4)GlcNAc(b1-4)]Man(a1-3)[Gal(b1-4)GlcNAc(b1-2)Man(a1-6)]Man(b1-4)GlcNAc(b1-4)GlcNAc
# Procedure, shortened: (§1)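 Glycan array binding is given as a within-array Z-score, which can be read as non-binding when negative. The arrays, 3228 of them, came from the Consortium for Functional Glycomics database and were retained only where the protein sequence was available. Z-scores were averaged across arrays of the same protein sequence at different concentrations or buffers and across linkers.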
# [2] = biological target: Gal(b1-4)GlcNAc(b1-2)[Gal(b1-4)GlcNAc(b1-4)]Man(a1-3)[Gal(b1-4)GlcNAc(b1-2)[Gal(b1-4)GlcNAc(b1-6)]Man(a1-6)]Man(b1-4)GlcNAc(b1-4)GlcNAc
# Procedure, shortened: as §1
# [3] = biological target: Gal(b1-4)GlcNAc(b1-2)[Gal(b1-4)GlcNAc(b1-4)]Man(a1-3)[GlcNAc(b1-4)][Gal(b1-4)GlcNAc(b1-2)Man(a1-6)]Man(b1-4)GlcNAc(b1-4)GlcNAc
# Procedure, shortened: as §1
# [4] = biological target: Gal(b1-4)GlcNAc(b1-2)[Gal(b1-4)GlcNAc(b1-4)]Man(a1-3)[GlcNAc(b1-4)][Gal(b1-4)GlcNAc(b1-2)[Gal(b1-4)GlcNAc(b1-6)]Man(a1-6)]Man(b1-4)GlcNAc(b1-4)GlcNAc
# Procedure, shortened: as §1
# [5] = biological target: Gal(b1-4)GlcNAc(b1-2)[Gal(b1-4)GlcNAc(b1-6)]Man(a1-6)[Gal(b1-4)GlcNAc(b1-2)Man(a1-3)]Man(b1-4)GlcNAc(b1-4)GlcNAc
# Procedure, shortened: as §1
# [6] = biological target: Gal(b1-4)GlcNAc(b1-2)[Gal(b1-4)GlcNAc(b1-6)]Man(a1-6)[Gal(b1-4)GlcNAc(b1-2)Man(a1-3)]Man(b1-4)GlcNAc(b1-4)[Fuc(a1-6)]GlcNAc
# Procedure, shortened: as §1
# [7] = biological target: Gal(b1-4)GlcNAc(b1-2)[Gal(b1-4)GlcNAc(b1-6)]Man(a1-6)[GlcNAc(b1-4)][Gal(b1-4)GlcNAc(b1-2)Man(a1-3)]Man(b1-4)GlcNAc(b1-4)GlcNAc
# Procedure, shortened: as §1
# [8] = biological target: Gal(b1-4)GlcNAc(b1-2)[Gal(b1-4)GlcNAc(b1-6)]Man(a1-6)[GlcNAc(b1-4)][Gal(b1-4)GlcNAc(b1-2)[Gal(b1-4)GlcNAc(b1-4)]Man(a1-3)]Man(b1-4)GlcNAc(b1-4)[Fuc(a1-6)]GlcNAc
# Procedure, shortened: as §1
# [9] = biological target: Gal(b1-4)GlcNAc(b1-3)Gal(b1-3)GalNAc
# Procedure, shortened: as §1
# [10] = biological target: Gal(b1-4)GlcNAc(b1-3)Gal(b1-3)GlcNAc
# Procedure, shortened: as §1
# [11] = biological target: Gal(b1-4)GlcNAc(b1-3)Gal(b1-4)Glc
# Procedure, shortened: as §1
# [12] = biological target: Gal(b1-4)GlcNAc(b1-3)Gal(b1-4)GlcNAc
# Procedure, shortened: as §1
# [13] = biological target: Gal(b1-4)GlcNAc(b1-3)Gal(b1-4)GlcNAc(b1-2)Man(a1-3)[Gal(b1-4)GlcNAc(b1-3)Gal(b1-4)GlcNAc(b1-2)Man(a1-6)]Man(b1-4)GlcNAc(b1-4)GlcNAc
# Procedure, shortened: as §1
# [14] = biological target: Gal(b1-4)GlcNAc(b1-3)Gal(b1-4)GlcNAc(b1-2)Man(a1-3)[Gal(b1-4)GlcNAc(b1-3)Gal(b1-4)GlcNAc(b1-2)Man(a1-6)]Man(b1-4)GlcNAc(b1-4)[Fuc(a1-6)]GlcNAc
# Procedure, shortened: as §1
# [15] = biological target: Gal(b1-4)GlcNAc(b1-3)Gal(b1-4)GlcNAc(b1-2)[Gal(b1-4)GlcNAc(b1-3)Gal(b1-4)GlcNAc(b1-6)]Man(a1-6)[Gal(b1-4)GlcNAc(b1-3)Gal(b1-4)GlcNAc(b1-2)Man(a1-3)]Man(b1-4)GlcNAc(b1-4)GlcNAc
# Procedure, shortened: as §1
# [16] = biological target: Gal(b1-4)GlcNAc(b1-3)Gal(b1-4)GlcNAc(b1-2)[Gal(b1-4)GlcNAc(b1-3)Gal(b1-4)GlcNAc(b1-6)]Man(a1-6)[Gal(b1-4)GlcNAc(b1-3)Gal(b1-4)GlcNAc(b1-2)Man(a1-3)]Man(b1-4)GlcNAc(b1-4)[Fuc(a1-6)]GlcNAc
# Procedure, shortened: as §1
# [17] = biological target: Gal(b1-4)GlcNAc(b1-3)Gal(b1-4)GlcNAc(b1-3)Gal(b1-4)GlcNAc
# Procedure, shortened: as §1
# [18] = biological target: Gal(b1-4)GlcNAc(b1-3)Gal(b1-4)GlcNAc(b1-3)Gal(b1-4)GlcNAc(b1-2)Man(a1-3)[Gal(b1-4)GlcNAc(b1-3)Gal(b1-4)GlcNAc(b1-3)Gal(b1-4)GlcNAc(b1-2)Man(a1-6)]Man(b1-4)GlcNAc(b1-4)GlcNAc
# Procedure, shortened: as §1
binder,measurement,setting,value
B1,glycan array binding signal (z-score),[1],-0.177
same,glycan array binding signal (z-score),[2],0.072
same,glycan array binding signal (z-score),[3],-0.47
same,glycan array binding signal (z-score),[4],-0.86
same,glycan array binding signal (z-score),[5],-0.321
same,glycan array binding signal (z-score),[6],-0.639
same,glycan array binding signal (z-score),[7],-0.633
same,glycan array binding signal (z-score),[8],-0.189
same,glycan array binding signal (z-score),[9],-0.664
same,glycan array binding signal (z-score),[10],-0.525
same,glycan array binding signal (z-score),[11],-0.719
same,glycan array binding signal (z-score),[12],-0.5
same,glycan array binding signal (z-score),[13],2.91
same,glycan array binding signal (z-score),[14],1.72
same,glycan array binding signal (z-score),[15],0.813
same,glycan array binding signal (z-score),[16],0.495
same,glycan array binding signal (z-score),[17],-0.34
same,glycan array binding signal (z-score),[18],2.41
